Substitutions are numbered along the chain they refer to. Results are given in words; binding and its absence hold for the method and conditions named. For part of these data: In cells and extracts the contact can be indirect. Some entries that bind do so weakly or less than the wild type. For part of these data: Where a sequence is shown, tags or fusion partners need not be part of it.
Tests used:
GST-LIN9^94–542 (human) = GST-LIN9^94–542 (human) (UniProt Q5TKA1); experiment: pull-down; all five tagged MuvB subunits co-expressed in Sf9 cells; extracts precipitated with resin capturing the indicated tag, also successive precipitations of different affinity tags; coomassie staining
[1] = biological target: T1, FLAG-LIN9 quadruple mutant R174A/R175A/F180A/F181A (mouse) (UniProt Q8C735); experiment: co-IP; FLAG-tagged mouse proteins transfected into HCT116 cells (10 uM Nutlin-3a for 24 h to stimulate DREAM formation); anti-FLAG magnetic agarose from 2-3 mg whole cell extract, IP lysis buffer with 150 mM NaCl, 0.5% Triton-X 100; endogenous proteins detected by western blot
T1 sequence: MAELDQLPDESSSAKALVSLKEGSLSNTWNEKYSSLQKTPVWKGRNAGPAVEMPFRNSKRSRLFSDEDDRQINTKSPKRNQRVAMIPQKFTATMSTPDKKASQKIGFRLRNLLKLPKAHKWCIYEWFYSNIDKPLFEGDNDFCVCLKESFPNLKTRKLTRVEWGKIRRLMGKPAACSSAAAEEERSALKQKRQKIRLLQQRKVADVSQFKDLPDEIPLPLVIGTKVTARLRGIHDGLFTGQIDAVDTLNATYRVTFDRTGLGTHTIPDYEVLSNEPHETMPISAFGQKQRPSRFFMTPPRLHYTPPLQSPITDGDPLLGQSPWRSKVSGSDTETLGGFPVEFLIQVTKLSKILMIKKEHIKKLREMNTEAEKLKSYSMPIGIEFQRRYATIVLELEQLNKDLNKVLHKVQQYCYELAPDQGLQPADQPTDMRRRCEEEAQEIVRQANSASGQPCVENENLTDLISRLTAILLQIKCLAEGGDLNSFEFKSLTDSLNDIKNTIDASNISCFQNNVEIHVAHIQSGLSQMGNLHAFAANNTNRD

Sequences of proteins named here, by UniProt entry; tags and fusion partners are left off. A change or cut given only in a name is not applied to a line headed by its entry.
UniProt Q96GY3: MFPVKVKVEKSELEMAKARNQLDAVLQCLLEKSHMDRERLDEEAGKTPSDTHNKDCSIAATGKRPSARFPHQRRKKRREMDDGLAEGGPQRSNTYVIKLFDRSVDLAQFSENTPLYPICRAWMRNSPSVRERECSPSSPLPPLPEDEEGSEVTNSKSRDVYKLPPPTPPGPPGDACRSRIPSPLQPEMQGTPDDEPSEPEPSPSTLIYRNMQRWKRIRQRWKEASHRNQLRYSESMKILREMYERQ
UniProt Q6MZP7: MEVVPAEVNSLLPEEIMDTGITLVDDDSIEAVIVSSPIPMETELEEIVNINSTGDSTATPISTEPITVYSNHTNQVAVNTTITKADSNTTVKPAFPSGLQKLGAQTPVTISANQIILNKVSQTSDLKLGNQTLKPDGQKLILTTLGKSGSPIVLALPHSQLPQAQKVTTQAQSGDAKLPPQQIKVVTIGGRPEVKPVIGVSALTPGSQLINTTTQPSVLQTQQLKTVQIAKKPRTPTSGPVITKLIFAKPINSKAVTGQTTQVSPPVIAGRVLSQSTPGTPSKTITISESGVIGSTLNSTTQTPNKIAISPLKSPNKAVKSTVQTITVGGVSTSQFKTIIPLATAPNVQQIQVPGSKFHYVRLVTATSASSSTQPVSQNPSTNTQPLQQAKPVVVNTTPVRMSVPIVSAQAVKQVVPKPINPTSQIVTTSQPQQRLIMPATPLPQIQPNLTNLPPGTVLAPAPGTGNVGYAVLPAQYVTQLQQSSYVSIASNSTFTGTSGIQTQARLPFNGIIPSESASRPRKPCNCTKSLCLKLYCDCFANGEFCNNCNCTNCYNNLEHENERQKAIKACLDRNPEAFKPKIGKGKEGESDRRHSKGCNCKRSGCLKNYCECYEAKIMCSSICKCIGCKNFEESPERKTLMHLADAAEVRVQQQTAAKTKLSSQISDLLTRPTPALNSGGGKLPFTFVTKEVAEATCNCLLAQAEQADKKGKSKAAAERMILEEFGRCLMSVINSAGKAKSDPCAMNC
UniProt Q09028: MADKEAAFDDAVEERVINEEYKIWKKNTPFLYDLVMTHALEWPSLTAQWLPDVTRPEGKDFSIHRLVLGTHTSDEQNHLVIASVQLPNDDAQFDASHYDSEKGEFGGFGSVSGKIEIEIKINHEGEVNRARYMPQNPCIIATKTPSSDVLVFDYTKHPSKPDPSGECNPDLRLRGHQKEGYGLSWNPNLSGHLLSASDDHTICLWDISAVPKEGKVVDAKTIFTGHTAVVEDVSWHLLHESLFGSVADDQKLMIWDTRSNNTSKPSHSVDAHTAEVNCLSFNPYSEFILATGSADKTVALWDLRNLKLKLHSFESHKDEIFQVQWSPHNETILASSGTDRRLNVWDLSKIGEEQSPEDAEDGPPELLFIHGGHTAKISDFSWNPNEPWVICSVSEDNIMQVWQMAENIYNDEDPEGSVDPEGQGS
UniProt Q08999: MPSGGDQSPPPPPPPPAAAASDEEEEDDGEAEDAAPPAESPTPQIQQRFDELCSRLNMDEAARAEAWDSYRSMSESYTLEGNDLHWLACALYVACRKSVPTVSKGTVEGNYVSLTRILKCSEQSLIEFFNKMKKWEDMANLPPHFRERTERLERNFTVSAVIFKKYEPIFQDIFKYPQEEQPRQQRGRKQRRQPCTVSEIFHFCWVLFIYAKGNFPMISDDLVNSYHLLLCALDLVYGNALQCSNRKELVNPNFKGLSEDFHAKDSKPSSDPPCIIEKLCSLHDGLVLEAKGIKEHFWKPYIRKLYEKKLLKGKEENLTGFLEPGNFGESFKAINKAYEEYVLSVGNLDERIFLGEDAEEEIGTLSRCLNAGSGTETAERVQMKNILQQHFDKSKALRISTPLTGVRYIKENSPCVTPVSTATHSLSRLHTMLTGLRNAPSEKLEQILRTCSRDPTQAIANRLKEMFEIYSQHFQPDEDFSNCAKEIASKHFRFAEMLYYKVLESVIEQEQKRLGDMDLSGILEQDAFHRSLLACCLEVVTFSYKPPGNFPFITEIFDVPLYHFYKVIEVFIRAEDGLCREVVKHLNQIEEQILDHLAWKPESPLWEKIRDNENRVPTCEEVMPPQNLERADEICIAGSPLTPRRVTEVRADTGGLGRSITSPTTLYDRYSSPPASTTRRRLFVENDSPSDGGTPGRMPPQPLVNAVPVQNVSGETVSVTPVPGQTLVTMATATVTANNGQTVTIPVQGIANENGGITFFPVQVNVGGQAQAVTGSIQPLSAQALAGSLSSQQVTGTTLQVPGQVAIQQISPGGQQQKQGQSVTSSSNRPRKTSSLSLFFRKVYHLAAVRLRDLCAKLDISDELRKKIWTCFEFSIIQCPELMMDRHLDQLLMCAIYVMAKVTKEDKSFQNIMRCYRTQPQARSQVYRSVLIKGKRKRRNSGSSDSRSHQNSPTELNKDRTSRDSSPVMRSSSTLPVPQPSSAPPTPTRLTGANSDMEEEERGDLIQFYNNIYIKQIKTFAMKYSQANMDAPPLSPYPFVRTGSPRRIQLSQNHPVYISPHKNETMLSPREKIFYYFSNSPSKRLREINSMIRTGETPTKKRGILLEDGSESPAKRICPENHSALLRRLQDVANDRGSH

[2] = biological target: T2, FLAG-LIN9 triple mutant E125A/W126A/F127A (mouse) (UniProt Q8C735); experiment: as above
T2 sequence: T1 sequence with E125A, W126A, F127A, A174R, A175R, A180F, A181F

[3] = biological target: T3, FLAG-tagged mouse LIN9, wild type (mouse) (UniProt Q8C735); experiment: as above
T3 sequence: T1 sequence with A174R, A175R, A180F, A181F

[4] = biological target: T4, FLAG-tagged mouse LIN9^1–300 (mouse) (UniProt Q8C735); experiment: as above
T4 sequence: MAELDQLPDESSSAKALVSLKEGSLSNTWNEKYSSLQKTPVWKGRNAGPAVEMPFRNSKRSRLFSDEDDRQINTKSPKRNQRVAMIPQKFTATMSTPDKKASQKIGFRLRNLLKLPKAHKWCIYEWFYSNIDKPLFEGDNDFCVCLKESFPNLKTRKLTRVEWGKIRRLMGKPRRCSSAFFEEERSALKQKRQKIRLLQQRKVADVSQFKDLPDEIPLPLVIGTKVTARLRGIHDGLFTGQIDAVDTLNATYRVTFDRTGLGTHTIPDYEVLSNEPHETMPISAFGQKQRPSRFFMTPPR

[5] = biological target: T5, FLAG-tagged mouse LIN9^300–542 (mouse) (UniProt Q8C735); experiment: as above
T5 sequence: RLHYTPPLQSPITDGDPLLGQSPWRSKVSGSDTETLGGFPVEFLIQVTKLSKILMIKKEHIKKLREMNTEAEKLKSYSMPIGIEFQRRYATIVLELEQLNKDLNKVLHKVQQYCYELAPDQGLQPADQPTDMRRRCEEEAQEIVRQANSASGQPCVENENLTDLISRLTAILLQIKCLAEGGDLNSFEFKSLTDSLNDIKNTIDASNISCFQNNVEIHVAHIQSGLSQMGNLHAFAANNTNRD

[6] = biological target: LIN9^94–278 (DIRP region of LIN9) (human) (UniProt Q5TKA1); experiment: crystal structure; MuvBN subcomplex, sitting drop at 4 °C, 0.2 M sodium tartrate, 0.1 M bis-tris propane pH 6.5, 20% PEG 3350; 2.55 Å; both purified

| Substance | binding (GST-LIN9^94–542 (human)) | binding [3] | binding [4] | binding [5] | further results |
| --- | --- | --- | --- | --- | --- |
| GST-LIN37 (from UniProt Q96GY3 1-246) | binds |  |  |  |  |
| GST-LIN52 (from UniProt Q52LA3 1-112) | binds |  |  |  |  |
| His-LIN54^504–749 (from UniProt Q6MZP7 504-749) (domain or fragment) | binds |  |  |  |  |
| LIN37, endogenous in HCT116 cells (from UniProt Q96GY3 1-246) |  | binds | binds | no binding | binding [1]: no binding; binding [2]: no binding |
| LIN37^92–130 (CRAW domain of LIN37) (from UniProt Q96GY3 92-130) (domain or fragment) |  |  |  |  | binding [6]: binds |
| LIN54, endogenous in HCT116 cells (from UniProt Q6MZP7 1-749) |  | binds | no binding | binds |  |
| RBAP48, endogenous in HCT116 cells (from UniProt Q09028 1-425) |  | binds | binds | no binding | binding [1]: no binding |
| p130, endogenous in HCT116 cells (from UniProt Q08999 1-1139) |  |  | no binding | binds |  |

Reference: paper PMC8792015
